Data published in ChEMBL document CHEMBL1759970, “Design, synthesis and SAR of novel ethylenediamine and phenylenediamine derivatives as factor Xa inhibitors” (Bioorg Med Chem Lett, 2011).
Values after ≈ are worked out from the molar mass of the structure shown.

Key:
physchem [1] = details: buffer, pH 1.2
physchem [2] = details: buffer, pH 6.8
physchem [3] = details: octanol/water

| SMILES | solubility (physchem [1]) [µg/mL] | solubility (physchem [2]) [µg/mL] | logD (physchem [3]) |
| --- | --- | --- | --- |
| CCOC(=O)c1ccc(NC(=O)c2cc3cc(Cl)ccc3[nH]2)c(NC(=O)c2nc3c(s2)CN(C)CC3)c1 | 2.7 (≈ 5.02 µM) | < 1 | – |
| COC(=O)C[C@@H](CNC(=O)c1cc2cc(Cl)ccc2[nH]1)NC(=O)c1nc2c(s1)CN(C)CC2 | > 1000 | 135 (≈ 276 µM) | – |
| CN1CCc2nc(C(=O)N[C@H](CNC(=O)c3cc4cc(Cl)ccc4[nH]3)CC(=O)O)sc2C1 | 900 (≈ 1890 µM) | 432 (≈ 908 µM) | – |
| CN1CCc2nc(C(=O)N[C@H](CNC(=O)c3cc4cc(Cl)ccc4[nH]3)CC(=O)N(C)C)sc2C1 | > 1000 | 140 (≈ 278 µM) | – |
| COC(=O)C[C@H](CNC(=O)c1cc2cc(Cl)ccc2[nH]1)NC(=O)c1nc2c(s1)CN(C)CC2 | 813 (≈ 1660 µM) | 87 (≈ 178 µM) | – |
| CN1CCc2nc(C(=O)N[C@@H](CNC(=O)c3cc4cc(Cl)ccc4[nH]3)CC(=O)O)sc2C1 | 938 (≈ 1970 µM) | 544 (≈ 1140 µM) | – |
| COC(=O)C[C@@H](CNC(=O)c1nc2c(s1)CN(C)CC2)NC(=O)c1cc2cc(Cl)ccc2[nH]1 | 536 (≈ 1090 µM) | 93 (≈ 190 µM) | – |
| CN1CCc2nc(C(=O)NC[C@H](CC(=O)O)NC(=O)c3cc4cc(Cl)ccc4[nH]3)sc2C1 | > 1000 | 39 (≈ 81.9 µM) | – |
| COC(=O)C[C@H](CNC(=O)c1nc2c(s1)CN(C)CC2)NC(=O)c1cc2cc(Cl)ccc2[nH]1 | 237 (≈ 484 µM) | 93 (≈ 190 µM) | – |
| CN1CCc2nc(C(=O)NC[C@@H](CC(=O)O)NC(=O)c3cc4cc(Cl)ccc4[nH]3)sc2C1 | 786 (≈ 1650 µM) | 30 (≈ 63 µM) | – |
| COC(=O)COc1ccc(NC(=O)c2cc3cc(Cl)ccc3[nH]2)c(NC(=O)c2nc3c(s2)CN(C)CC3)c1 | 51 (≈ 92.1 µM) | < 1 | – |
| COC(=O)COc1ccc(NC(=O)c2nc3c(s2)CN(C)CC3)c(NC(=O)c2cc3cc(Cl)ccc3[nH]2)c1 | 8 (≈ 14.4 µM) | < 1 | – |
| CCOC(=O)Cc1ccc(NC(=O)c2cc3cc(Cl)ccc3[nH]2)c(NC(=O)c2nc3c(s2)CN(C)CC3)c1 | 250 (≈ 453 µM) | < 1 | – |
| CN1CCc2nc(C(=O)Nc3cc(CC(=O)O)ccc3NC(=O)c3cc4cc(Cl)ccc4[nH]3)sc2C1 | 22 (≈ 42 µM) | 16 (≈ 30.5 µM) | – |
| CN1CCc2nc(C(=O)Nc3cc(OCC(=O)O)ccc3NC(=O)c3cc4cc(Cl)ccc4[nH]3)sc2C1 | 12 (≈ 22.2 µM) | < 1 | – |
| COC(=O)C(C)Oc1ccc(NC(=O)c2cc3cc(Cl)ccc3[nH]2)c(NC(=O)c2nc3c(s2)CN(C)CC3)c1 (stereo not given) | 61 (≈ 107 µM) | < 1 | – |
| COC(=O)C(C)(C)Oc1ccc(NC(=O)c2cc3cc(Cl)ccc3[nH]2)c(NC(=O)c2nc3c(s2)CN(C)CC3)c1 | 37 (≈ 63.6 µM) | < 1 | – |
| CN1CCc2nc(C(=O)Nc3cc(OC(C)(C)C(=O)O)ccc3NC(=O)c3cc4cc(Cl)ccc4[nH]3)sc2C1 | 71 (≈ 125 µM) | 362 (≈ 637 µM) | 1.3 |
| COC(=O)C(C)(C)COc1ccc(NC(=O)c2cc3cc(Cl)ccc3[nH]2)c(NC(=O)c2nc3c(s2)CN(C)CC3)c1 | 11 (≈ 18.5 µM) | < 1 | – |
| CN1CCc2nc(C(=O)Nc3cc(OCC(C)(C)C(=O)O)ccc3NC(=O)c3cc4cc(Cl)ccc4[nH]3)sc2C1 | 4 (≈ 6.87 µM) | 9 (≈ 15.5 µM) | – |
| COC(=O)C1(COc2ccc(NC(=O)c3cc4cc(Cl)ccc4[nH]3)c(NC(=O)c3nc4c(s3)CN(C)CC4)c2)CC1 | 22 (≈ 37 µM) | < 1 | – |
| CN1CCc2nc(C(=O)Nc3cc(OCC4(C(=O)O)CC4)ccc3NC(=O)c3cc4cc(Cl)ccc4[nH]3)sc2C1 | 4 (≈ 6.9 µM) | 1 (≈ 1.72 µM) | – |
